# Reference: PubChem BioAssay AID1508624 (National Center for Advancing Translational Sciences (NCATS), 2021)
# Screen size: about 48,000 compounds; about 120 (0.25%) were called active. Inconclusive results (about 4%) are left out. Calls come from the whole dose curve; as a rule, active = well fitted activation curve with a large enough effect; inconclusive = small, poorly fitted or top-dose-only effect, or another doubt; inactive = no such curve, though single readings can be large or run the other way. The list shows a part of the results.
# Assay: Primary qHTS for Identification of Small Molecule Activators of Huntingtin-Antisense Promoter Activity; note: nearly all actives have a fitted effect of over 55% in size
# Settings: HEK293 HTT-AS promoter firefly luciferase reporter (activity 0% = vehicle and -100% = no light), 24 h; series mostly up to 57.5 µM; activity change, positive = activation: at the top concentration
# Summary of the method: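 HEK293 Fluc reporter, 2,500 cells/well, 24 h pre-culture; cpds up to 57.5 uM final, 24 h 37 degrees C; Dual-Glo, 10 min RT; normalized vehicle = 0%, zero RLU = -100%.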
row,Structure (SMILES),"activity change, positive = activation"
1,Cc1nc2nc(SCC(=O)NCCc3ccc(Cl)cc3)nn2c(C)c1Cc1ccccc1,inactive: -8.41%
2,COC(=O)c1sc2cccc(F)c2c1S(=O)(=O)N1CCN(c2ccc(F)cc2)CC1,inactive: -23.8%
3,Cc1ccc(CNC(=O)c2ccc3c(=O)n(-c4ccccc4)c(=O)[nH]c3c2)cc1,inactive: 12.1%
4,S=c1nc[nH]c2nc[nH]c12,inactive
5,COc1cc(OC)c(NC(=O)NCc2ccc3c(c2)CCN3C(=O)c2ccccc2)cc1Cl,inactive: -9.08%
6,CCc1ccccc1NC(=O)CSc1nc(-c2ccccc2OC)nc2c1Cc1c(CO)cnc(C)c1O2,inactive: -20.8%
7,COC(=O)C(CCSC)NC(=O)c1cc2c(n(-c3ccc(C)cc3)c1=O)CC(C)(C)CC2=O (stereo not given),inactive: -16.5%
8,CC(=O)c1cc(C(=O)Nc2cc(C)cc(C)c2)c2ccccn12,inactive: -19.4%
9,Cc1ccc2c(c1)cc1c(=O)n(CC(=O)NC3CCCCC3)nc(C)n12,inactive: -0.436%
10,CCOC(=O)CC1c2cc(OCC)c(OCC)cc2CCN1C(=O)Nc1cccc(Cl)c1 (stereo not given),inactive: -16.5%
11,Cc1cccn2c(=O)c3cc(C(=O)NCc4ccccc4)c(=N)n(CCOCCO)c3nc12,inactive: -12.9%
12,COc1cccc(CNC(=O)C2CCN(S(=O)(=O)c3cn(C)cn3)CC2)c1,inactive: -6.27%
13,CC(=O)N1c2ccc(S(=O)(=O)N3CCCCCC3)cc2CC1C(=O)NCc1ccc(Cl)cc1 (stereo not given),inactive: 0.634%
14,O=C(Cn1cc(SCc2ccc(C(F)(F)F)cc2)c2ccccc21)N1CCCC1,inactive: -0.311%
15,CCCOc1ccc(-c2nonc2NC(=O)c2oc3ccc(C)cc3c2C)cc1OCCC,inactive: -4.79%
16,CCOC(=O)N1CCC(NC(=O)c2cnn(-c3cccc(Cl)c3C)c2C2CCN(C(=O)OC(C)(C)C)CC2)CC1,inactive: -0.344%
17,CN1CCN(c2nc3c(S(=O)(=O)c4ccc(Br)cc4)nnn3c3ccsc23)CC1,inactive: -3.39%
18,Oc1ccc(Cl)cc1C1=Nc2ccccc2N=C(c2cccc(Br)c2)C1,inactive: 10.2%
19,COc1cccc(CN2CCc3nc(N4CCN(c5ncccn5)CC4)ncc3C2)c1,inactive: -53.4%
20,CCc1sc(Nc2cccc(Cl)c2C)nc1-c1cc2cccc(OC)c2oc1=O,inactive: -15.7%

row,Structure (SMILES),"activity change, positive = activation"
1,COc1ccc(OC)c(NC(=O)c2cc(CN3CCCC3)on2)c1,inactive: -10.5%
2,O=C(CC1C(=O)OCCN1Cc1ccccc1)Nc1cccc(C(F)(F)F)c1 (stereo not given),inactive: -31.2%
3,Cc1cccc(-c2nc3c4ccccc4nc(NCc4ccc(Cl)cc4)n3n2)c1,inactive: 9.57%
4,CC(=O)c1ccc(NC(=O)CSc2cn(CC(=O)N3CCCCCC3)c3ccccc23)cc1,inactive: -38.9%
5,Cc1c(Cn2c(C)nc3c(C(=O)O)cc(N4CCOCC4)cc32)cccc1C(F)(F)F,inactive: -30.9%
6,COc1ccc(-c2cc(C(=O)NCc3ccc(F)cc3)c3c(-c4ccc(F)cc4)[nH]nc3n2)cc1OC,inactive: 0%
7,COc1ccc(NC(=O)CSc2oc(-c3ccco3)nc2S(=O)(=O)c2ccc(Br)cc2)c(OC)c1,inactive: -12%
8,CCc1ccc2oc(-c3cc(NC(=O)C(C)C)cc(C)c3O)nc2c1,inactive: 5.84%
9,CC(C)Cn1c(=O)c2sccc2n2c(CCCC(=O)NCc3ccccc3Cl)nnc12,inactive: -1.08%
10,CCCCNC(=O)CCn1c(=O)c2ccccc2n(Cc2ccccc2C#N)c1=O,inactive: -11.5%
11,CCC(=O)N1CCc2cc(Br)cc(S(=O)(=O)N3CCCC(C(=O)Nc4cccc(Cl)c4C)C3)c21 (stereo not given),inactive: -27.4%
12,CCOc1ccc(CC(=O)Nc2c(C(=O)c3ccc(C)cc3)oc3ccccc23)cc1OCC,inactive: -5.24%
13,Cc1ccc(C(=O)COC(=O)C(CC(C)C)NC(=O)C2CCC(C)CC2)cc1 (stereo not given),inactive: -10.2%
14,CCc1ccccc1NC(=O)c1ccc2nc(CCc3ccccc3)oc2c1,inactive: 10.5%
15,COc1cc(C2N=C(N)Nc3nc4ccccc4n32)ccc1OCCC(C)C (stereo not given),inactive: -24.3%
16,O=C(Cc1cccc([N+](=O)[O-])c1)NCc1nc2cccnc2n1Cc1ccc(F)cc1,inactive: -20.9%
17,CC(=O)c1cccc(NC(=O)C2CCCN(c3nnc(-n4cccc4)s3)C2)c1 (stereo not given),inactive: -12.1%
18,Cn1c(=O)cc(OCCCC(=O)Nc2ccc(F)cc2)c2ccccc21,inactive: 24%
19,CCOc1ccc(NS(=O)(=O)c2cc(Br)cc3c2N(C(=O)C2CC2)CC3)cc1,inactive: -23.5%
20,CCCN(CCC)CCCNC(=O)C1CCCN(S(=O)(=O)c2cccc3nsnc23)C1 (stereo not given),inactive: 2.83%

row,Structure (SMILES),"activity change, positive = activation"
1,Cc1ccccc1-c1nc(CS(=O)(=O)CC(=O)N2CCN(c3ccccc3)CC2)c(C)o1,inactive: -26%
2,CC(=O)Nc1ccc(NC(=O)CCNS(=O)(=O)c2cccc3nsnc23)cc1,inactive: 0.681%
3,CCC(C)(CN(C)C)OC(=O)c1ccccc1 (stereo not given),inactive: -8.94%
4,CCc1ccc2oc(-c3cccc(NC(=O)c4ccc(N5CCC(C)CC5)c([N+](=O)[O-])c4)c3)nc2c1,inactive: 19.9%
5,COc1cccc(NC(=O)Cn2cc(S(=O)(=O)N3CCCC3)c(S(=O)(=O)N3CCCC3)c2)c1,inactive: -6.77%
6,CCOc1ccccc1CNC(=O)c1cc2cc(S(=O)(=O)N3CCCCC3)ccc2n1C,inactive: -32.3%
7,Cc1ccccc1CNC(=O)Cn1ncn2nc(-c3cccs3)cc2c1=O,inactive: -0.653%
8,O=C(COc1ccc(S(=O)(=O)NC2CCCCC2)cc1)Nc1ccc(C(F)(F)F)cc1,inactive: -28.5%
9,Cc1cc(N2CCCCC2)nc2ccc(NC(=O)/C=C/c3ccccc3OC(C)C)cc12,inactive: -16.4%
10,CCOc1ccc(N(CC)S(=O)(=O)N2CCCC(C(=O)NCc3ccccc3Cl)C2)cc1 (stereo not given),inactive: -32.9%
11,CCOc1cccc(CC(=O)N2CCc3c([nH]c4ccccc34)C2c2ccc(F)cc2)c1OCC (stereo not given),inactive: -24.7%
12,O=S(=O)(c1ccccc1)n1nc(-c2ccccc2)nc1NCc1ccc(Cl)cc1,inactive: -11.3%
13,Cc1ccc(CNC(=O)CSCc2ccc(F)cc2)cc1,inactive: 4.15%
14,Cc1ccc(NC(=O)c2oc3ccccc3c2NC(=O)c2cc3ccccc3o2)cc1,inactive: 20%
15,O=C(CSc1cn(CCNC(=O)c2c(F)cccc2F)c2ccccc12)Nc1ccc2c(c1)OCCO2,inactive: -23.3%
16,COC(=O)c1ccc(NC(=O)c2cc(S(=O)(=O)N3CCc4ccccc43)cn2C)cc1,inactive: -18.3%
17,CC(C)CC(NS(=O)(=O)c1ccc2c(c1)oc(=O)n2C)C(=O)NCCc1ccc(Cl)cc1 (stereo not given),inactive: -10.8%
18,CCCc1nc(C)c2c(=O)[nH]c(-c3cc(S(=O)(=O)N4CCN(CC)CC4)ccc3OCC)nn12,inactive
19,Cc1cc(C)cc(NS(=O)(=O)c2ccc3[nH]cc(C(=O)N4CCCC4)c(=O)c3c2)c1,inactive: -7.92%
20,O=C(OCc1cc(=O)n2nc(C3CC3)sc2n1)c1ccc(F)cc1,inactive: 36.5%
